Consider 82 compounds from PubChem BioAssay (NCI).

Structures are written as SMILES. Several values for one entry are separate records, joined by “and”; a condition that tells them apart may be missing. Equal values may be shown once.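 All cell lines were grown in 96-well plates and treated with compound for 48 hours. GI50 is the concentration that inhibits growth by half. TGI: concentration producing complete growth inhibition.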 Square brackets hold non-standard residues; d marks the D form. Peptide text beside a SMILES is read from it. Phe(4-NO2) = N[CH](Cc1ccc([N+](=O)[O-])cc1)C(=O)O

The assay relates to NCI-H322M lung. As to the kind of experiment: NCI tumour cell line growth inhibition, 48 h.
`COc1ccc(C(O)(c2ccccc2)c2nccc3ccccc23)cc1` (stereo unspecified): the TGI was greater than 100 µM. Regarding `COc1cc2ncnc(Nc3cccc(Cl)c3F)c2cc1OC(=O)N1CCN(C)C[C@H]1C`, the GI50 was 0.111 µM and the TGI is greater than 61.8 µM. With `O=C(NCc1cccnc1)C1COc2cc(-c3cc(=O)c4ccccc4o3)ccc2O1` (stereo unspecified), the TGI is greater than 100 µM.

Regarding `CCCCCCn1c(-c2ccc(C(=O)O/N=C(\N)c3ccc4ccccc4c3)cc2)nc(-c2ccccc2)c1-c1ccccc1`, the GI50 is greater than 100 µM and the TGI is greater than 100 µM.

`CN1CCC2(CC1)NC(=O)c1c(c3ccc(Cl)c(Cl)c3n1C)C2C#N` (stereo unspecified): the GI50 was 8.06 µM and the TGI was determined as 26.5 µM.

`O=C(OC1CCC2OOC1O2)c1ccc([N+](=O)[O-])cc1` (stereo unspecified) had a TGI greater than 100 µM. As to `COC(=O)c1ccccc1NC(=NC1CCCCCC1)NS(=O)(=O)c1ccc(C)cc1`, the TGI was greater than 100 µM. On the same count and under the same terms, the same measure for `COC(=O)C1=C(OC(=O)/C(=C/c2ccccc2)c2ccc(Cl)cc2)C(C(=O)OC)[C@@]2(O)[C@@H](C(=O)OC)[C@H](C)C[C@@H]1[C@@H]2C(=O)OC` (stereo partly specified): greater than 100 µM. With `O=C(O)COc1ccc(C(=O)/C(SS/C(C(=O)c2ccc(OCC(=O)O)c(Cl)c2Cl)=C2\C=C(c3ccc(Cl)cc3)SS2)=C2/C=C(c3ccc(Cl)cc3)SS2)c(Cl)c1Cl`, the TGI is greater than 100 µM.

On to `O=C1C=CC(=O)c2c1ccc1c3ccccc3n(-c3ccccc3)c21`, for which the TGI came out at 34.3 µM. The compound `CC(=O)C1Cn2c(=O)c3cc4ccccc4cc3c(=O)n2C=C1C` (stereo unspecified) yielded a TGI greater than 100 µM. As to `CN(C)CCCNc1ncnc2c1ncn2C1OC(CO)C(O)C1O` (stereo unspecified), the TGI is greater than 100 µM. The same measure, in the same setting: the same measure for `O=c1cc(CSc2c(-c3ccccc3)c(=O)n(-c3ccccc3)c(=S)n2-c2ccccc2)[nH]c(=O)[nH]1`: greater than 100 µM; for `CC(NC(=O)C(Cc1ccc([N+](=O)[O-])cc1)NC(=O)C(N)CCCCN)C(=O)NC(Cc1ccc([N+](=O)[O-])cc1)C(N)=O` (stereo unspecified) (H-K[Phe(4-NO2)]A[Phe(4-NO2)]-NH2; configuration not given here): greater than 100 µM; for `COc1cc(O)c2c(c1)O[C@@H]1OCC[C@H]21`: greater than 100 µM. `N#C[Se]CCN1C(=O)C2C(C1=O)[C@H]1C=C[C@@H]2S1` (stereo partly specified): the GI50 is 1.75 µM and the TGI is 5.5 µM.

The compound `CNC(=O)NCCN1CC2CCC(CC2)C1` yielded a TGI greater than 10 µM.

As to `O=C([O][Hg][CH2]C1OCCOC1[CH2][Hg][O]C(=O)c1ccccc1)c1ccccc1` (stereo unspecified), the GI50 was greater than 43.3 µM and the TGI is greater than 59.8 µM.

Regarding `COc1ccc(Sc2nc3cc(N)cc(N)c3nc2-c2ccccc2)cc1`, the GI50 is 35.5 µM and the TGI is greater than 100 µM. `CCOC(=O)Cc1csc(Nc2ccc(OCC)cc2)n1` yielded a TGI greater than 100 µM. Compound `COC(=O)C(C)(C)[C@@H]1OC(=O)N(S(=O)(=O)c2c(C)cc(C)cc2C)[C@H]1C(C)C` displayed a TGI greater than 100 µM. For the compound `CCOC(=O)c1cc(C(=O)c2cc(OC)c(OC)c(OC)c2)n2c1ccc1ccccc12`, the GI50 is 0.708 µM and the TGI is greater than 100 µM. For `COc1ccc(NC(=O)CC/C(CC(=O)c2ccco2)=N/NC(N)=S)cc1`, the TGI is greater than 100 µM. Consider `Cc1c(Cl)nc(Cl)nc1Cl`, for which the TGI was determined as 5.71 µM. As for `COc1ccc2[nH]cc(C(=O)C(=O)NC34CC5CC(CC(C5)C3)C4)c2c1`, the TGI was greater than 100 µM. As to `CC1(Br)CC2OC3(Br)C=CC(C)(O)C2(CC1=O)C3(C)C` (stereo unspecified), the TGI was greater than 100 µM. As to `COc1cc(C(=O)N2CCN(c3ccccc3)CC2)c2ccccc2n1`, the GI50 was 0.284 µM and the TGI was greater than 100 µM. For `Cc1ccc(NC(=O)c2cc3ccccc3c(N=Nc3cc(S(=O)(=O)O)ccc3O)c2O)c(C)c1`, the TGI was greater than 100 µM. `CN(C)CCCNC(=O)CCNC(=O)c1cc(NC(=O)c2cc(NC(=O)c3cc(NC(=O)c4nccn4C)cn3C)cn2C)cn1C` displayed a TGI greater than 100 µM.

In turn, `CONC(C)=O` registered a TGI greater than 100 µM. Turning to `O=C(CCCN1CCC2(CC1)CC(=O)N(N1CCOCC1)C2=O)c1ccc(F)cc1`, the TGI is greater than 100 µM. On the same count and under the same terms, to `NC(=O)c1cccc(N=c2oc3ccc(Br)cc3cc2-c2nc3ccccc3[nH]2)c1` belongs 29 µM; to `Cc1nc(N2N=C(c3ccc(Cl)cc3)CCC2=O)sc1[N+](=O)[O-]`, greater than 100 µM. `O=[N+]([O-])c1ccc(C2CC(c3ccccc3)=Nc3ccccc3S2)cc1` (stereo unspecified): the GI50 was greater than 100 µM and the TGI was greater than 100 µM. Consider `O=C(O)c1cc2c(cc1CC(Cc1ccc3c(c1)CCCC3)C(=O)O)CCCC2` (stereo unspecified), for which the TGI is greater than 100 µM. `OCCCNc1ncnc2[nH]ncc12` returned a TGI greater than 100 µM.

`C=CCN1COc2c(cc3c4c(cccc24)C(=O)O3)C1`: the TGI worked out at 50.8 µM. Same read-out and setting: to `O=C(CCCN1CCC(Nc2ccccc2)(c2nnnn2C2CCCCC2)CC1)c1ccc(F)cc1` belongs 13.7 µM; to `Cc1nn2c(nc1=O)sc1ccc3ccccc3c12`, greater than 100 µM; to `NC(=O)/C(=N\NC(=O)C[n+]1ccccc1)C1NC(=O)NC1=O` (stereo unspecified), greater than 100 µM. Same read-out and setting: to `Cc1cc(C)c(O)c(CN2CCN(C(C)C)CCN(C(C)C)CC2)c1` belongs greater than 100 µM.

For `CC(=O)O[C@@H]1C(=O)N(c2ccccc2)[C@@H]1c1cc2ccccc2c2ccccc12`, the TGI was greater than 100 µM. `C/C(=N\NC(=S)N(C)C)c1nc2ncccc2[nH]1` displayed a TGI of 50.9 µM. The compound `COc1cc2c(cc1OCCCOS(C)(=O)=O)N=C[C@@H]1CCCN1C2=O` had a TGI greater than 100 µM. Take `CCOP12(OCC)NC(=O)OC1(C(F)(F)F)c1ccccc1O2` (stereo unspecified): the TGI is greater than 100 µM.

As to `COc1cc(-c2oc3c(OC)cc(OC)c(O)c3c(=O)c2OC)cc(OC)c1OC`, the TGI was greater than 100 µM. `CC(Oc1ccccc1Cl)C(=O)NN1C(=O)CC(=O)NC1=S` (stereo unspecified): the TGI was greater than 100 µM. Consider `O=C(CC(C(=O)c1cccs1)c1ccsc1)c1ccccc1` (stereo unspecified), for which the TGI was greater than 100 µM. On to `COc1cc(/C(=C2/O[C@@H]([C@H]3COC(C)(C)O3)[C@H]3OC(C)(C)O[C@@H]23)c2ccc3ccccc3c2)cc(OC)c1OC`, for which the GI50 is 5.74 µM and the TGI is greater than 100 µM.

Compound `CN(C)CCCSc1nc2c(c(=N)n1-c1ccccc1)c(=S)n(-c1ccccc1)c(=S)n2-c1ccccc1` returned a TGI of 3.71 µM. For `C=CCN1C[C@H](C)N([C@@H](c2ccc(C(=O)N3CCCCC3)cc2)c2cccc(OC)c2)C[C@H]1C`, the TGI was greater than 100 µM. In the case of `CC1=NC2c3c(-c4ccc(Cl)cc4)cn(-c4ccc(C)cc4)c3N=CN2N1` (stereo unspecified), the TGI is greater than 100 µM. Same read-out and setting: to `CCCn1cc2c(SC)nc(SC)nc2n1` belongs greater than 100 µM; to `O=C(O)c1nc2ccc(C(F)(F)F)cc2nc1NCc1ccc(Cl)c(Cl)c1`, 37.8 µM.

Take `CC/C(=C(/c1ccc(O)cc1)c1ccc(OCCN)cc1)c1ccccc1`: the GI50 was 4.59 µM and the TGI worked out at 14.4 µM.

Turning to `COc1ccc(-c2c3c(n(C4OC(COC(C)=O)C(OC(C)=O)C(OC(C)=O)C4OC(C)=O)c(=S)c2C#N)CCC3)cc1` (stereo unspecified), the TGI was greater than 100 µM. For the compound `CCOC(=O)C(C(=O)OCC)c1ccc([N+](=O)[O-])o1`, the TGI was greater than 100 µM. `C[C@]12CC[C@H]3[C@@H](CC=C4C[C@@H](O)CC[C@@]43C)[C@@H]1C/C(=C/c1ccccc1)[C@@H]2O` yielded a TGI greater than 59.3 µM.

On to `Cc1ccc(-c2n[nH]c(=O)n2NC(=O)c2ccccc2C(=O)O)cc1`, for which the TGI is greater than 100 µM. `CCCCCCCCCCCC(=O)N1CCN(C(C)=O)CC1`: the GI50 is greater than 100 µM and the TGI was greater than 100 µM. Regarding `N=C(N)SCc1c2ccccc2c(CSC(=N)N)c2ccccc12`, the GI50 is 12.5 µM and the TGI was 30.9 µM. For the compound `CCN1C(=O)N(CC)C2C1NN=c1s/c(=C\c3ccco3)c(=O)n12` (stereo unspecified), the GI50 was 0.877 µM and the TGI was greater than 100 µM. As to `Cc1ccc(C(=O)Cn2c(C(=O)/C=C/c3cccs3)nc3ccccc32)cc1`, the TGI was greater than 100 µM.

On to `C=C(C)[C@@]1(O)CCCC[C@@H]1CC(Sc1ccccc1)Sc1ccccc1`, for which the TGI was found to be 32.8 µM. Still for that read-out and setting: the same measure for `Cn1c(=O)c2c(nc3sc4c(n32)C(=O)c2c(O)ccc(O)c2C4=O)n(C)c1=O`: greater than 100 µM. The compound `N#Cc1cc([N+](=O)[O-])ccc1NC(=O)/C(=N\NC(=O)c1ccncc1)C(c1cnc2ccc([N+](=O)[O-])cc2n1)[N+](=O)[O-]` (stereo unspecified) had a TGI of 11 µM. On the same count and under the same terms, the same measure for `Nc1ccc(Oc2ccc(C3(c4ccc(Oc5ccc(N)cc5)cc4)C4CC5CC(C4)CC3C5)cc2)cc1`: 1.74 µM. `CCCCCCCCCCCCSC1=C(Cl)C(=O)C(OC)=C(OC)C1=O`: the GI50 is 3.87 µM and the TGI was 22.4 µM. As to `C=C1C(=O)O[C@H]2[C@H]1CC/C(C=Nc1c(N)cc(C(F)(F)F)cc1C(F)(F)F)=C\CC[C@@]1(C)O[C@@H]21`, the GI50 was 2.13 µM and the TGI is 6.33 µM. On to `COCCNc1ccc2c3c(cccc13)C(=O)N(CCN(C)C)C2=O`, for which the GI50 is 6 µM and the TGI was greater than 25 µM. In turn, `C[Si](C)(N[Si](C)(C)OCCc1ccccc1)OCCc1ccccc1` gave a TGI greater than 100 µM. Compound `CCOC(=O)Cn1c(=O)c2nc(SC)sc2n(-c2ccccc2)c1=S` registered a TGI of 48.3 µM. The compound `O=C1[C@@H]2C(c3ccccc3[N+](=O)[O-])=[N+](c3ccccc3)O[C@@H]2C(=O)N1c1ccc(Cc2ccc(N3C(=O)[C@H]4C(c5ccccc5[N+](=O)[O-])=[N+](c5ccccc5)O[C@H]4C3=O)cc2)cc1` gave a TGI greater than 100 µM.

As for `Cn1nc(C(F)(F)F)cc1-c1c[nH]c(OCc2ccc(Cl)cc2)c(-c2ccc(Cl)c(C(F)(F)F)c2)c1=O`, the GI50 is 1.4 µM and the TGI is greater than 50 µM. As to `C/C=C1\CC2C(=O)CCC2C2c3ccccc3OC12` (stereo unspecified), the TGI is greater than 100 µM. On to `N#Cc1ccc(CSC2=C(c3ccc(Cl)cc3)S/C(=C3\SC(SCc4ccc(C#N)cc4)=C(c4ccc(Cl)cc4)S3)S2)cc1`, for which the TGI is greater than 100 µM.

`C=C/C(C)=C\CC1[C@](C)(O)CC[C@H]2C(C)(C)C(O)CC[C@]12C` (stereo partly specified): the TGI was greater than 100 µM. As to `Cc1ccc(N=NC(=Nc2ccc(Cl)cc2)c2ccc(N(CCC#N)CCC#N)cc2)cc1`, the TGI was greater than 100 µM. Compound `CC1=NNC(=O)C1C1CC(c2c[nH]c3ccccc23)=NN(C(N)=O)C1=O` (stereo unspecified) came in with a TGI greater than 100 µM. As for `CC1=CCCC2C1(C)CCC(C)C2(C)Cc1cc(O)ccc1O` (stereo unspecified), the GI50 was 11.3 µM; the TGI is 24.5 µM and 21.6 µM. In the case of `NC(N)=NC(N)=Nc1cnccn1`, the TGI is greater than 100 µM. With `COC(=O)c1ccccc1CC(Cc1ccc2c(c1)CCC2)C(=O)OC` (stereo unspecified), the TGI was greater than 100 µM.
